Source: the supplement of paper PMC10369915
The list shows a part of the results. Rule as the data show it: active = 3.2 or more and inactive = the rest. The signal is at background level for most entries.

Assays:
Test in all cases: enrichment score (SH2-bound / input frequency) (ratio); bacterial display of known human phosphotyrosine sites (pTyr-Var adds point mutants) read by sequencing; higher = stronger binding; tyrosines were phosphorylated by kinases first
Conditions in all cases: peptide library: pTyr-Var
SHP2 C-SH2 domain E139D = biological target: SHP2 C-SH2 domain E139D
[1] = biological target: SHP2 C-SH2 domain wild-type
SHP2 N-SH2 domain L43F = biological target: SHP2 N-SH2 domain L43F
SHP2 N-SH2 domain T42A = biological target: SHP2 N-SH2 domain T42A
SHP2 N-SH2 domain T52S = biological target: SHP2 N-SH2 domain T52S
[2] = biological target: SHP2 N-SH2 domain wild-type
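Also: displayed peptides selected on beads carrying the immobilized SH2 domain, with library peptides lacking any tyrosine serving as negative controls.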

Row | Binder | enrichment score (SHP2 C-SH2 domain E139D) | enrichment score [1] | enrichment score (SHP2 N-SH2 domain L43F) | enrichment score (SHP2 N-SH2 domain T42A) | enrichment score (SHP2 N-SH2 domain T52S) | enrichment score [2]
1 | LDPMVYMNDTS [PTK2B_Y834_K838T] | inactive: 1.04 | inactive: 1.05 | inactive: 1.2 | inactive: 1.39 | inactive: 0.807 | inactive: 1.01
2 | QNTGNYFDLFG [PTPN11_Y62_D61N_YF] | inactive: 0.877 | inactive: 0.799 | inactive: 0.698 | inactive: 0.936 | inactive: 0.805 | inactive: 0.918
3 | ERNAHYRTPKI [PTK2B_Y699_R698H] | inactive: 0.612 | inactive: 0.567 | inactive: 0.502 | inactive: 0.536 | inactive: 0.565 | inactive: 0.685
4 | NHFKIYNLCAE [PTEN_Y68_YF] | inactive: 0.633 | inactive: 0.527 | inactive: 1 | inactive: 0.599 | inactive: 0.88 | inactive: 0.478
5 | QNAGDYYDLYG [PTPN11_Y62_T59A] | inactive: 0.799 | inactive: 0.695 | inactive: 0.737 | inactive: 0.478 | inactive: 0.609 | inactive: 0.842
6 | QTEAEYRFIYM [PTPN11_Y511_Q510E] | inactive: 0.421 | inactive: 0.768 | inactive: 0.547 | inactive: 0.417 | inactive: 0.43 | inactive: 0.52
7 | QNTGFYFDLFG [PTPN11_Y62_D61Y_YF] | inactive: 1.03 | inactive: 1.28 | inactive: 1.13 | inactive: 1.18 | inactive: 1.14 | inactive: 0.994
8 | EYRFIYMAVQH [PTPN11_Y515_Q510E] | inactive: 1.86 | inactive: 1.47 | inactive: 1.51 | inactive: 1.46 | inactive: 1.33 | inactive: 1.71
9 | FGLDRYQCDCT [PTGS1_Y54] | inactive: 1.5 | inactive: 1.62 | inactive: 1.58 | inactive: 1.36 | inactive: 1.47 | inactive: 1.72
10 | PYRFIYMAVQH [PTPN11_Y515_Q510P] | inactive: 2.69 | inactive: 3.06 | inactive: 2.87 | inactive: 2.29 | inactive: 2.79 | inactive: 2.55
11 | ECKLFYSRKEG [PTPN11_Y263_L262F] | inactive: 0.423 | inactive: 0.397 | inactive: 0.401 | inactive: 0.413 | inactive: 0.606 | inactive: 0.358
12 | PTEAQYRFIFM [PTPN11_Y511_Q506P_YF] | inactive: 0.458 | inactive: 0.58 | inactive: 0.404 | inactive: 0.478 | inactive: 0.565 | inactive: 0.494
13 | EPVSDYINADI [PTPN11_Y304_N308D] | inactive: 0.826 | inactive: 0.787 | inactive: 0.842 | inactive: 0.61 | inactive: 0.701 | inactive: 0.945
14 | ERNARYRTPKI [PTK2B_Y699] | inactive: 0.321 | inactive: 0.39 | inactive: 0.406 | inactive: 0.366 | inactive: 0.315 | inactive: 0.342
15 | KNKNRYKNILP [PTPN11_Y279] | inactive: 0.777 | inactive: 0.64 | inactive: 0.839 | inactive: 0.918 | inactive: 0.728 | inactive: 0.904
16 | TLNFFYQQVKS [PTK2_Y148] | inactive: 1.21 | inactive: 1.41 | inactive: 1.32 | inactive: 1.18 | inactive: 1.31 | inactive: 1.34
17 | QNTGGYYDLYG [PTPN11_Y62_D61G] | inactive: 0.864 | inactive: 0.855 | inactive: 0.709 | inactive: 0.786 | inactive: 0.746 | inactive: 0.605
18 | NTGDYYDLYGG [PTPN11_Y63] | inactive: 1.03 | inactive: 0.723 | inactive: 0.966 | inactive: 0.798 | inactive: 0.768 | inactive: 0.998
19 | NHFKICNLCAE [PTEN_Y68_Y68C_YF] | inactive: 2.63 | inactive: 2.77 | inactive: 2.87 | inactive: 2.3 | inactive: 2.7 | inactive: 2.43

Row | Binder | enrichment score (SHP2 C-SH2 domain E139D) | enrichment score [1] | enrichment score (SHP2 N-SH2 domain L43F) | enrichment score (SHP2 N-SH2 domain T42A) | enrichment score (SHP2 N-SH2 domain T52S) | enrichment score [2]
20 | NHFKIHNLCAE [PTEN_Y68_Y68H_YF] | inactive: 0.86 | inactive: 0.864 | inactive: 0.88 | inactive: 1.01 | inactive: 1.03 | inactive: 0.87
21 | ECKHLYSRKEG [PTPN11_Y263_L261H] | inactive: 1.29 | inactive: 1.14 | inactive: 1.26 | inactive: 1.08 | inactive: 1.21 | inactive: 0.978
22 | QNTGGYFDLFG [PTPN11_Y62_D61G_YF] | inactive: 2.72 | inactive: 1.37 | inactive: 0.426 | inactive: 0.429 | inactive: 0.411 | inactive: 1.85
23 | QNTGYYYDLYG [PTPN11_Y62_D61Y] | inactive: 1.2 | inactive: 1.55 | inactive: 1.22 | inactive: 1.54 | inactive: 1.25 | inactive: 0.777
24 | RTEAQYRFIFM [PTPN11_Y511_Q506R_YF] | inactive: 0.611 | inactive: 0.842 | inactive: 0.72 | inactive: 0.659 | inactive: 0.327 | inactive: 1.04
25 | QNTGNYYDLYG [PTPN11_Y62_D61N] | inactive: 1.1 | inactive: 0.741 | inactive: 0.845 | inactive: 0.47 | inactive: 0.669 | inactive: 0.545
26 | ECKLLYSQKEG [PTPN11_Y263_R265Q] | inactive: 0.816 | inactive: 0.843 | inactive: 0.6 | inactive: 0.766 | inactive: 0.659 | inactive: 0.979
27 | QKTGDYYDLYG [PTPN11_Y62_N58K] | inactive: 0.918 | inactive: 0.692 | inactive: 0.669 | inactive: 0.579 | inactive: 0.582 | inactive: 0.718
28 | SETDDYAEIID [PTK2_Y397] | inactive: 0.421 | inactive: 0.463 | inactive: 0.447 | inactive: 0.448 | inactive: 0.5 | inactive: 0.618
29 | FGLDHYQCDCT [PTGS1_Y54_R53H] | inactive: 1.37 | inactive: 1.24 | inactive: 1.32 | inactive: 1.21 | inactive: 1.22 | inactive: 1.16
30 | EPVSDYINANI [PTPN11_Y304] | inactive: 0.624 | inactive: 0.779 | inactive: 0.689 | inactive: 0.62 | inactive: 0.558 | inactive: 0.68
31 | KNKNRSKNILP [PTPN11_Y279_Y279S] | inactive: 0.48 | inactive: 0.573 | inactive: 0.411 | inactive: 0.325 | inactive: 0.552 | inactive: 0.332
32 | QYRFIYMAVQH [PTPN11_Y515] | inactive: 1.06 | inactive: 1.41 | inactive: 1.01 | inactive: 1.38 | inactive: 1.07 | inactive: 1.66
33 | EFRFIYMAVQH [PTPN11_Y515_Q510E_YF] | inactive: 1.72 | inactive: 1.44 | inactive: 1.21 | inactive: 1.22 | inactive: 1.58 | inactive: 1.6
34 | QNTGDYCDLFG [PTPN11_Y62_Y63C_YF] | inactive: 0.6 | inactive: 0.87 | inactive: 0.803 | inactive: 0.898 | inactive: 0.79 | inactive: 0.765
35 | QKTGDYFDLFG [PTPN11_Y62_N58K_YF] | inactive: 1.66 | inactive: 1.16 | inactive: 1.36 | inactive: 1.17 | inactive: 0.936 | inactive: 1.4
36 | PFRFIYMAVQH [PTPN11_Y515_Q510P_YF] | active: 3.56 | inactive: 2.57 | active: 3.75 | inactive: 2.69 | active: 3.22 | active: 3.43
37 | ECKLLYSRKEG [PTPN11_Y263] | inactive: 0.666 | inactive: 0.657 | inactive: 0.439 | inactive: 0.579 | inactive: 0.693 | inactive: 0.537
